# Source: the supplement of paper PMC8728848
# The other results are listed elsewhere or left out.
# B1: Gal 9 (Homo sapiens), O00182 (protein)
# chain: MAFSGSQAPYLSPAVPFSGTIQGGLQDGLQITVNGTVLSSSGTRFAVNFQTGFSGNDIAFHFNPRFEDGGYVVCNTRQNGSWGPEERKTHMPFQKGMPFDLCFLVQSSDFKVMVNGILFVQYFHRVPFHRVDTISVNGSVQLSYISFQNPRTVPVQPAFSTVPFSQPVCFPPRPRGRRQKPPGVWPANPAPITQTVIHTVQSAPGQMFSTPAIPPMMYPHPAYPMPFITTILGGLYPSKSILLSGTVLPSAQRFHINLCSGNHIAFHLNPRFDENAVVRNTQIDNSWGSEERSLPRKMPFVRGQSFSVWILCEAHCLKVAVDGQHLFEYYHRLRNLPTINRLEVGGDIQLTHVQT
# How the values were obtained:
# Assay in all cases: glycan array binding signal (z-score within array); higher = stronger binding
# Conditions in all cases: glycan notation: IUPAC condensed, linker removed
# Gal(b1-3)GlcNAc = target: Gal(b1-3)GlcNAc
# In short: (§1)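 Glycan array data came from 3228 arrays in the Consortium for Functional Glycomics database, and only arrays with an available protein sequence were kept. Glycan names were put into IUPAC-condensed notation, and columns mapping to the same glycan were averaged. The binding signal is a within-array Z-score, averaged across arrays of one protein sequence run at different concentrations or buffers and across linkers. A negative Z-score can be read as non-binding.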
# [1] = target: Gal(b1-3)GlcNAc(a1-3)Gal(b1-4)GlcNAc
# In short: as §1
# [2] = target: Gal(b1-3)GlcNAc(a1-6)Gal(b1-4)GlcNAc
# In short: as §1
# Gal(b1-3)GlcNAc(b1-2)Man = target: Gal(b1-3)GlcNAc(b1-2)Man
# In short: as §1
# [3] = target: Gal(b1-3)GlcNAc(b1-2)Man(a1-3)[Gal(b1-3)GlcNAc(b1-2)Man(a1-6)]Man(b1-4)GlcNAc(b1-4)GlcNAc
# In short: as §1
# [4] = target: Gal(b1-3)GlcNAc(b1-2)Man(a1-3)[Gal(b1-3)GlcNAc(b1-2)Man(a1-6)]Man(b1-4)GlcNAc(b1-4)[Fuc(a1-6)]GlcNAc
# In short: as §1
# [5] = target: Gal(b1-3)GlcNAc(b1-2)Man(a1-3)[GlcNAc(b1-4)][Gal(b1-3)GlcNAc(b1-2)Man(a1-6)]Man(b1-4)GlcNAc(b1-4)GlcNAc
# In short: as §1
# [6] = target: Gal(b1-3)GlcNAc(b1-2)[Gal(b1-3)GlcNAc(b1-6)]Man(a1-6)[Gal(b1-3)GlcNAc(b1-2)Man(a1-3)]Man(b1-4)GlcNAc(b1-4)GlcNAc
# In short: as §1
# [7] = target: Gal(b1-3)GlcNAc(b1-3)Gal(b1-3)GlcNAc
# In short: as §1
# [8] = target: Gal(b1-3)GlcNAc(b1-3)Gal(b1-4)Glc
# In short: as §1
# [9] = target: Gal(b1-3)GlcNAc(b1-3)Gal(b1-4)GlcNAc
# In short: as §1
# [10] = target: Gal(b1-3)GlcNAc(b1-3)Gal(b1-4)GlcNAc(b1-2)Man(a1-3)[Gal(b1-3)GlcNAc(b1-3)Gal(b1-4)GlcNAc(b1-2)Man(a1-6)]Man(b1-4)GlcNAc(b1-4)GlcNAc
# In short: as §1
# [11] = target: Gal(b1-3)GlcNAc(b1-3)Gal(b1-4)GlcNAc(b1-2)[Gal(b1-3)GlcNAc(b1-3)Gal(b1-4)GlcNAc(b1-6)]Man(a1-6)[Gal(b1-3)GlcNAc(b1-3)Gal(b1-4)GlcNAc(b1-2)Man(a1-3)]Man(b1-4)GlcNAc(b1-4)[Fuc(a1-6)]GlcNAc
# In short: as §1
# [12] = target: Gal(b1-3)GlcNAc(b1-3)Gal(b1-4)GlcNAc(b1-3)Gal(b1-4)GlcNAc(b1-2)[Gal(b1-3)GlcNAc(b1-3)Gal(b1-4)GlcNAc(b1-3)Gal(b1-4)GlcNAc(b1-6)]Man(a1-6)[Gal(b1-3)GlcNAc(b1-3)Gal(b1-4)GlcNAc(b1-3)Gal(b1-4)GlcNAc(b1-2)Man(a1-3)]Man(b1-4)GlcNAc(b1-4)[Fuc(a1-6)]GlcNAc
# In short: as §1
# [13] = target: Gal(b1-3)GlcNAc(b1-3)Gal(b1-4)GlcNAc(b1-6)[Gal(b1-3)GlcNAc(b1-3)]Gal(b1-4)Glc
# In short: as §1
# [14] = target: Gal(b1-3)GlcNAc(b1-3)Gal(b1-4)[Fuc(a1-3)]GlcNAc(b1-6)[Gal(b1-3)GlcNAc(b1-3)]Gal(b1-4)Glc
# In short: as §1
# [15] = target: Gal(b1-3)GlcNAc(b1-3)GalNAc
# In short: as §1
# [16] = target: Gal(b1-3)GlcNAc(b1-6)Gal(b1-4)GlcNAc
# In short: as §1
# [17] = target: Gal(b1-3)GlcNAc(b1-6)GalNAc
# In short: as §1
# [18] = target: Gal(b1-3)GlcNAc(b1-6)[Gal(b1-3)]GalNAc
# In short: as §1
# Gal(b1-3)GlcNAc6S = target: Gal(b1-3)GlcNAc6S
# In short: as §1
# [19] = target: Gal(b1-3)[Fuc(a1-4)]GlcNAc
# In short: as §1
# [20] = target: Gal(b1-3)[Fuc(a1-4)]GlcNAc(b1-2)Man
# In short: as §1
# [21] = target: Gal(b1-3)[Fuc(a1-4)]GlcNAc(b1-2)Man(a1-3)[Gal(b1-3)[Fuc(a1-4)]GlcNAc(b1-2)Man(a1-6)]Man(b1-4)GlcNAc(b1-4)GlcNAc
# In short: as §1
# [22] = target: Gal(b1-3)[Fuc(a1-4)]GlcNAc(b1-2)Man(a1-3)[Gal(b1-3)[Fuc(a1-4)]GlcNAc(b1-2)Man(a1-6)]Man(b1-4)GlcNAc(b1-4)[Fuc(a1-6)]GlcNAc
# In short: as §1
# [23] = target: Gal(b1-3)[Fuc(a1-4)]GlcNAc(b1-3)Gal(b1-3)[Fuc(a1-4)]GlcNAc
# In short: as §1
# [24] = target: Gal(b1-3)[Fuc(a1-4)]GlcNAc(b1-3)Gal(b1-4)GlcNAc
# In short: as §1
# [25] = target: Gal(b1-3)[Fuc(a1-4)]GlcNAc(b1-3)Gal(b1-4)[Fuc(a1-3)]GlcNAc
# In short: as §1
# [26] = target: Gal(b1-3)[Fuc(a1-4)]GlcNAc(b1-6)GalNAc
# In short: as §1
# [27] = target: Gal(b1-3)[GlcNAc(b1-6)]GalNAc
# In short: as §1
# [28] = target: Gal(b1-3)[Neu5Ac(a2-6)]GalNAc
# In short: as §1
# [29] = target: Gal(b1-3)[Neu5Ac(a2-6)]GlcNAc(b1-4)Gal(b1-4)Glc
# In short: as §1
# [30] = target: Gal(b1-3)[Neu5Ac(a2-6)]GlcNAc(b1-6)Gal(b1-4)Glc
# In short: as §1
# [31] = target: Gal(b1-3)[Neu5Ac(b2-6)]GalNAc
# In short: as §1
# Gal(b1-4)Gal = target: Gal(b1-4)Gal
# In short: as §1
# [32] = target: Gal(b1-4)GalNAc(a1-3)[Fuc(a1-2)]Gal(b1-4)GlcNAc
# In short: as §1
# [33] = target: Gal(b1-4)GalNAc(b1-3)[Fuc(a1-2)]Gal(b1-4)GlcNAc
# In short: as §1
binder,measurement,setting,value
B1,glycan array binding signal (z-score),Gal(b1-3)GlcNAc,-0.243
same,glycan array binding signal (z-score),[1],-0.298
same,glycan array binding signal (z-score),[2],-0.294
same,glycan array binding signal (z-score),Gal(b1-3)GlcNAc(b1-2)Man,-0.329
same,glycan array binding signal (z-score),[3],-0.038
same,glycan array binding signal (z-score),[4],-0.31
same,glycan array binding signal (z-score),[5],-0.265
same,glycan array binding signal (z-score),[6],0.612
same,glycan array binding signal (z-score),[7],0.306
same,glycan array binding signal (z-score),[8],0.925
same,glycan array binding signal (z-score),[9],1.04
same,glycan array binding signal (z-score),[10],4.53
same,glycan array binding signal (z-score),[11],0.552
same,glycan array binding signal (z-score),[12],1.17
same,glycan array binding signal (z-score),[13],3.08
same,glycan array binding signal (z-score),[14],1.98
same,glycan array binding signal (z-score),[15],-0.175
same,glycan array binding signal (z-score),[16],-0.199
same,glycan array binding signal (z-score),[17],-0.296
same,glycan array binding signal (z-score),[18],-0.32
same,glycan array binding signal (z-score),Gal(b1-3)GlcNAc6S,-0.257
same,glycan array binding signal (z-score),[19],-0.322
same,glycan array binding signal (z-score),[20],-0.256
same,glycan array binding signal (z-score),[21],0.063
same,glycan array binding signal (z-score),[22],-0.204
same,glycan array binding signal (z-score),[23],-0.31
same,glycan array binding signal (z-score),[24],0.019
same,glycan array binding signal (z-score),[25],-0.309
same,glycan array binding signal (z-score),[26],-0.282
same,glycan array binding signal (z-score),[27],-0.326
same,glycan array binding signal (z-score),[28],-0.315
same,glycan array binding signal (z-score),[29],-0.246
same,glycan array binding signal (z-score),[30],-0.329
same,glycan array binding signal (z-score),[31],-0.32
same,glycan array binding signal (z-score),Gal(b1-4)Gal,-0.315
same,glycan array binding signal (z-score),[32],0.397
same,glycan array binding signal (z-score),[33],-0.33
